Results on 44 sequences are retold here after the supplement of paper PMC11417369.

± gives the standard deviation of the averaged measurements. The list shows a part of the results.

The subject of this test is PfAP2-I AP2 domain 3 (GST-tagged). Kind of test: gcPBM binding intensity (ln(normalized median fluorescence intensity)); higher = stronger DNA binding. Put shortly: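 The highest Masliner-normalised natural-log median intensity across replicate spots of either probe orientation is reported as binding intensity. GST-tagged P. falciparum DNA-binding domains expressed in E. coli were applied for 1 h to an Agilent 4 × 180k array of primer-extended double-stranded 36-bp intergenic genomic probes plus negative controls, and bound protein was detected with Alexa488 anti-GST antibody and scanned at 488 nm.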
“TAAAAAATATAAACTGCACACACACTAATAAAGAAA [CACACA_site8119]”: the “gcPBM binding intensity (ln)” value was found to be 8.75 ± 0.13.

Regarding “GCTTATTAATATCATACACACATAGATATATTTATA [CACACA_site3104]”, the “gcPBM binding intensity (ln)” value was 8.03 ± 0.45.

Take “CTATTATCGGTTCCTACACACAAATATATATGTCTA [CACACA_site3579]”: the “gcPBM binding intensity (ln)” value was 8.1 ± 0.57.

“ATATAGTTGTCATATTGTACACTTTAGGGTTGGTTA [XGTACX_site7339]”: the “gcPBM binding intensity (ln)” value was found to be 7.92 ± 0.25.

Regarding “TACAATCCATATTGTTGTACATTTATAAAATTTACA [XGTACX_site3053]”, the “gcPBM binding intensity (ln)” value stood at 7.51 ± 0.26.

For “CAATGGTACATACATACACACACACTAATAAAAAAA [CACACA_site8450]”, the “gcPBM binding intensity (ln)” value amounted to 7.91 ± 0.61.

In the case of “GTATATATATAAGAAGAAATATATAAATAAAATATA [CACACA_negctrl_site503]”, the “gcPBM binding intensity (ln)” value is 7.47 ± 0.61.

On to “TATTATGTTTATTAAACATGCATATATTTATTTATA [TGCATGCA_site187]”, for which the “gcPBM binding intensity (ln)” value amounted to 7.51 ± 0.47.

Regarding “ATATTTTATCATGTTTAATATTTATGTGGACATAAA [GTGCAC_negctrl_site275]”, the “gcPBM binding intensity (ln)” value was determined as 7.84 ± 0.28.

“AGTTGGATACGAAGATGTACAATAATAATAATTAAG [XGTACX_site3561]”: the “gcPBM binding intensity (ln)” value was 7.99 ± 0.61.

Consider “ACATTTTATATATGTAGTACATATTATAGATAATTT [XGTACX_site1976]”, for which the “gcPBM binding intensity (ln)” value is 7.75 ± 0.45.

As to “TATTTTATTTTTTTATGTACACAAAAAAAAAAAAAA [XGTACX_site945]”, the “gcPBM binding intensity (ln)” value came to 8.24 ± 0.38.

Regarding “TCACTATAATAATTTACACACATTTTAAGAAAATGG [CACACA_site5867]”, the “gcPBM binding intensity (ln)” value amounted to 7.67 ± 0.38.

For the sequence “ATCAAAAACATACCTACACACACAATATGTATATAT [CACACA_site9171]”, the “gcPBM binding intensity (ln)” value came out at 7.83 ± 0.53.

“AAGTTATTTATATATACACACAAATATAAATAATAT [CACACA_site1228]”: the “gcPBM binding intensity (ln)” value was found to be 7.68 ± 0.41.

As to “CTCAAATTTATTAGTGGTACATAACCAAGGAAATAA [XGTACX_site225]”, the “gcPBM binding intensity (ln)” value was 8.03 ± 0.52.

For the sequence “TTAATTGAAACTTATTGTACTTTTTTTTTTTTTTTT [XGTACX_site8162]”, the “gcPBM binding intensity (ln)” value was 8.64 ± 0.39.

For “ATAAATAAAAATAGAACACACATATGTTTTTTTTTT [CACACA_site3556]”, the “gcPBM binding intensity (ln)” value was determined as 7.58 ± 0.57.

Consider “CCTAGAAAAAAGAACTGTACATATATATATAAATAT [XGTACX_site1680]”, for which the “gcPBM binding intensity (ln)” value was found to be 7.75 ± 0.42.

Turning to “ATATGCAGAGACTGTTTGCACTTTTTTATTTTATGT [GTGCAC_site9695]”, the “gcPBM binding intensity (ln)” value was 9.63 ± 0.19.

On to “TGAAAAAATATAATTTGTACATATCAGGCAAAAATG [XGTACX_site1824]”, for which the “gcPBM binding intensity (ln)” value stood at 7.96 ± 0.51.

In the case of “AGGACAAGGGTTACATGTACATATATATATATATAT [XGTACX_site901]”, the “gcPBM binding intensity (ln)” value worked out at 9.66 ± 0.15.

Regarding “TTTATTAATTTATAGTGTACATATTAATAATATATT [XGTACX_site7949]”, the “gcPBM binding intensity (ln)” value is 7.8 ± 0.36.

With “ATATATATTATATATTGTACATATTATATTCATTAT [XGTACX_site1766]”, the “gcPBM binding intensity (ln)” value was 7.82 ± 0.44.

For “AAAAAATAAAACATATATAATATATAATATATATAT [GTGCAC_negctrl_site447]”, the “gcPBM binding intensity (ln)” value is 8.62 ± 0.12.

With “AATGTGAAAACGTGTACACATTTTATTTAATTTATC [CACACA_site5966]”, the “gcPBM binding intensity (ln)” value was determined as 7.98 ± 0.4.

As to “ATAAATTATATTATTGAACACACGTTTGGTAATGTT [CACACA_site2662]”, the “gcPBM binding intensity (ln)” value turned out to be 7.77 ± 0.55.

Regarding “AAAAAAATAATAAAAAGTACAAAATGTAGAAAATGT [XGTACX_site5018]”, the “gcPBM binding intensity (ln)” value was 8.1 ± 0.75.

As to “TTTTTTTTTATAGCTAAACACACATAAGAATATATG [CACACA_site8282]”, the “gcPBM binding intensity (ln)” value was determined as 7.72 ± 0.69.

“TATAAATATAAAAGGAGTACAAATATATATATATAT [XGTACX_site1386]”: the “gcPBM binding intensity (ln)” value was 9.29 ± 0.35.

Consider “AGTTATAATAAAAAATGTACGTATTATCATTAAGAA [XGTACX_site4244]”, for which the “gcPBM binding intensity (ln)” value worked out at 7.86 ± 0.55.

Turning to “GAAAATAAAAAATATGAACACACATATATAACAAAA [CACACA_site7975]”, the “gcPBM binding intensity (ln)” value was determined as 7.85 ± 0.49.

With “TCCTAATATATGTATGCACACACAATATATACATAT [CACACA_site9111]”, the “gcPBM binding intensity (ln)” value came to 9.01 ± 0.16.

For “AAAAAAATTAAACATACACACGTTACTATTTTTATA [CACACA_site5009]”, the “gcPBM binding intensity (ln)” value was 7.61 ± 0.49.

“AAAATTGATATATGCACACATATATATATTAAATAT [CACACA_site763]”: the “gcPBM binding intensity (ln)” value came out at 8.965 ± 0.064.

In the case of “AAAAAAAAAAAAAACACACATACACATATATTTTTA [CACACA_site3893]”, the “gcPBM binding intensity (ln)” value came to 8.21 ± 0.43.

For “TTTCATTCTGGTATCACACATTTATTTTCTAGTTTA [CACACA_site4286]”, the “gcPBM binding intensity (ln)” value came to 8.01 ± 0.65.

As to “AGGAAAAAATCGAGTAGTACACATTTAGAAATATAA [XGTACX_site8019]”, the “gcPBM binding intensity (ln)” value is 7.87 ± 0.49.

In the case of “ATATCACATATATATATATATATATATATATATATA [XGTACX_negctrl_site463]”, the “gcPBM binding intensity (ln)” value is 9.14 ± 0.23.

Consider “AACAAGGCCCGGTACTGTACATTTTTTCATAACATT [XGTACX_site6134]”, for which the “gcPBM binding intensity (ln)” value was determined as 7.51 ± 0.69.

Turning to “TATATACATATATACACACACATATATTATATATAT [CACACA_site275]”, the “gcPBM binding intensity (ln)” value is 8.3 ± 0.54.

Take “GTATGTATATTTATCTGTACATATTTATGTATTCTT [XGTACX_site2112]”: the “gcPBM binding intensity (ln)” value came to 7.66 ± 0.45.

Regarding “TATTAATAATTAAGTTGTACATTAATTAATATACTG [XGTACX_site6994]”, the “gcPBM binding intensity (ln)” value was found to be 7.46 ± 0.41.

For the sequence “TTTAATATTAATAATTGTACATTTTCATAAATACGC [XGTACX_site2837]”, the “gcPBM binding intensity (ln)” value is 7.64 ± 0.44.
